# Source: ChEMBL document CHEMBL5308541, “MAIP: An Open-Source Tool to Enrich High-Throughput Screening Output and Identify Novel, Druglike Molecules with Antimalarial Activity” (ACS Med Chem Lett, 2023)
# Out of some 150,000 compounds screened, about 540 (0.36%) showed an effect of 50% or more. The list shows a part of the results.
# Tested on: Plasmodium falciparum
# Experiment: Primary screen in NF54 nanoGlo assay, in single point, at 2uM, 72h; a lower Z score goes with more inhibition
# Format: functional, Erythrocyte
# Settings: timepoint 72 hour
SMILES,% Inhibition [%],Z score
CN1CCN(C2(CNC(=O)c3ccc(-c4cccc(F)c4)cc3)CCCCC2)CC1,3,-0.54
COc1ccc(C2CC2C(=O)Nc2cnccc2N2CCN(C)CC2)cc1 (centres undefined),4,-0.74
CC1(N2CCC2)CCC(NC[C@H](O)c2cccc(Cl)c2)CC1 (some centres undefined),15,-2.67
Cn1cc(C(=O)Nc2ccc(Oc3ccnc4cc(Cl)ccc34)c(F)c2)[nH]c1=O,1,-0.19
Cc1ccc(-c2nnc(Nc3ccccc3)c3ccccc23)cc1CN1C(=O)c2ccccc2C1=O,32,-6.95
Cc1cc(CNCc2cc3ccccc3[nH]2)c(C)c(CN2CCN(C)CC2)c1,21,-3.58
C[C@@H](CCOc1ccccc1)C(=O)Nc1ccc(-n2cc(CO)nn2)cc1,-2,0.38
CC1CCCCC1OCC(=O)N1CCNC(=O)C1c1cccs1 (centres undefined),-12,1.79
c1cc(-c2noc(C34CCCN(CCC3)C4)n2)cc(-n2ccnc2)c1,9,-1.87
Cc1ccc(Nc2ccccc2C(=O)N2CCN([C@H]3CCNC3)CC2)cc1,-4,0.76
O=S(=O)(Oc1ccc(-c2nc3cc(Cl)ccc3[nH]2)cc1)c1ccc(Cl)cc1,-4,0.65
OC[C@H]1CCCN(c2cc(NCCc3csc4ccccc34)ncn2)C1,3,-0.55
OCCNc1nc2ccccc2n1Cc1csc(C2CCCC2)n1,-12,2.13
Nc1nc2c(c(NCC3=CCCCC3)n1)CCN([C@H]1CCCNC1)CC2,13,-2.3
CN(CCCc1nccn1C)C[C@]1(O)CCCNC1,-3,0.53
O=C(CCc1n[nH]c2c1CCCC2)NC1CCN(S(=O)(=O)c2ccccc2)CC1,-6,1.18
O=C(Nc1ccccc1Oc1cccnc1)[C@@H]1CCCN1C(=O)CC1CC1,4,-0.75
CCN1CCO[C@@H](CNc2ncnc3[nH]ccc23)[C@@H]1c1nccn1C,3,-0.57
COCCCn1cnc(-c2ccccc2)c1-c1cc2c(cc1OC)OCCCO2,13,-2.73
COc1ccccc1-c1cc(C(=O)NC2CCN(c3cc(-c4cccs4)[nH]n3)CC2)[nH]n1,3,-0.48
O=C(NCc1n[nH]c2ncccc12)c1ccc2cccc(F)c2n1,-9,1.64
Cn1cc(CCN2CCC(C(=O)NCc3ccc(F)cc3Cl)CC2)c2cccnc21,6,-1.05
O=S1(=O)CC[C@H](NC2CCN(c3ncnc4[nH]ccc34)CC2)C1,-3,0.45
Cc1ccc(-c2cc(C(=O)NC[C@H]3CC4(CCNCC4)CO3)[nH]n2)cc1,1,-0.25

SMILES,% Inhibition [%],Z score
CC(C)CCNC[C@H]1O[C@H](Cc2cc(CN3CCN(c4ccccc4)CC3)on2)CC[C@@H]1O,-1,0.11
COc1ccc(Nc2ncnc3onc(C)c23)cc1OC(C)C,10,-1.71
O=c1cc(C2CCN(c3nccc(N4CCC(O)CC4)n3)CC2)cc[nH]1,0,0.03
CCOc1ccccc1Nc1cc(C)ncn1,-8,1.21
C[C@@H](Cc1cnccn1)Nc1cc(-c2ccncc2)nc2ccnn12,-12,2.06
Cc1ccc(CN2CCC(CNc3cc(-n4nc(C)cc4N)ncn3)CC2)cc1,4,-0.68
O=C(CCCn1ccnc1)N1CCc2[nH]c(-c3ccc(Cl)cc3)nc2C1,-6,1.04
C[C@@H](CO)Nc1ccc(-c2cnc(N3CCCC(O)C3)nc2)cn1 (some centres undefined),-7,1.31
CN1CCN([C@H](c2ccccc2)c2nc(-c3ccc(Oc4ccc(F)cc4)nc3)no2)CC1,-8,1.4
Cc1cccc(CN2CCC[C@@]3(CCN(c4nc(N)nc5[nH]ncc45)C3)C2=O)c1,-4,0.73
Cc1nc(C)c(C)c(N2CC(OCc3ccccc3)C2)n1,-11,1.9
O=C(NCCc1c[nH]cn1)c1cccc(-c2ccc(CN3CCCC3)cc2)c1,-8,1.18
C[C@@H](CCNc1ccc(-c2nc(-c3cccc(F)c3)no2)cn1)N1CCCCCC1,-13,2.19
O=C(Nc1cnc(N2CCNCC2)nc1)N1CCN(C2CC3CCC2C3)CC1 (centres undefined),-7,1.18
Cc1cc(C(=O)NCC2(C3CC3)CCC2)c(C)s1,-10,2
C[C@H](O)CN1CCN(CC(=O)NC2CCN(C3CC3)CC2)CC1,-5,0.86
CCN(CC)c1nc(/C=C\c2ccccc2Cl)nc2ccc(OC)cc12,-20,2.97
C[C@H](Nc1ncnc2c1CCNCC2)c1cnn(-c2ccc(F)cc2)c1,-13,2.26
O=C(NCC1CCN(c2noc(C3CC3)n2)CC1)c1cc(-c2ccccc2)[nH]n1,-11,1.87
O=C(Nc1cccc(-c2ccn[nH]2)c1)N1CCC(N2CCOCC2)CC1,1,-0.15
CN1CCC[C@H](NC2CCN(CC3CC3)CC2)C1,4,-0.73
Cc1[nH]c2ccccc2c1CN1CCC(Oc2ccccc2C(=O)N2CCCCC2)CC1,2,-0.42
CO[C@H]1C[C@@H](CN2CCCC2)N(c2ccnc(N3CCOCC3)n2)C1,-2,0.35
CN([C@](C)(C#N)C1CC1)S(C)(=O)=O,-7,1.42

SMILES,% Inhibition [%],Z score
CCc1cnc(NCC[C@H]2CCCCN2C)nc1,1,-0.2
c1ccc(-c2nccc(N3CCC(Nc4cccnn4)CC3)n2)cc1,-3,0.54
N#Cc1ccc(CN2CCN(c3ncnc4cc[nH]c34)CC2)c(F)c1,-12,1.79
O[C@H]1CCCN(c2ccnc(N3CCN(c4nsc5ccccc45)CC3)n2)C1,-6,1.05
CCN1CC[C@H](CN2CCOC3(CCN(Cc4c[nH]cn4)CC3)C2)C1,-6,1.12
O=C(c1ccc(-c2ccsc2)cc1)N1CC(Nc2ncccn2)C1,2,-0.38
CCN(C[C@H]1CCN(c2cc(N3CCCC3)ncn2)C1)CC(F)(F)F,-7,1.54
c1ccc(CN2CCC[C@H](CNC3CCN(c4ccc5c(c4)OCO5)CC3)C2)cc1,14,-2.53
N#CC1CCCC(N[C@H]2c3ccccc3C[C@H]2O)C1 (some centres undefined),4,-0.8
O=C1NCCCC[C@@H]1NC1CCN(c2cccc(-c3cscn3)c2)CC1,-10,1.75
CC(=O)N1CC(Nc2ccnc3ccncc23)CCC1C(F)(F)F (centres undefined),2,-0.34
Cc1cc(F)ccc1N1CCC(N2CCC[C@H](N3CCN(c4ccccc4)CC3)C2)CC1,5,-0.8
C[C@@H](c1cc2ccccc2o1)N(C)CCC(=O)N1CCN(c2ccc(F)cc2)CC1,-2,0.48
FC(F)(F)COc1cccc(CN[C@H]2CCCNCC2)c1,26,-3.98
CN1CCC(CNC(=O)N(C)C2Cc3ccccc3C2)(N(C)C)CC1,-2,0.4
CCN(CC1CCN(C2CCN(C)CC2)CC1)C[C@@H](C)CCC=C(C)C,4,-0.65
Clc1ccc(Nc2nc3c(Br)cccc3o2)cc1,-1,0.15
Fc1cc2ncnc(NCc3ccnc(-n4ccnc4)c3)c2cc1F,-10,1.9
O=C(NCc1cccc2[nH]ccc12)C1CCN(C2CCOCC2)CC1,-5,1.08
Cc1ccc2c(c1)c1nnc(-c3ccccc3)c-1cn2Cc1ccccc1F,-3,0.47
COc1ccc2oc(C)c(C(=O)N[C@@H](C)c3cccnc3)c2c1,-2,0.28
CN1CCN(CCCN(C)c2ncnc3[nH]ccc23)CC1,-16,2.5
CCN1CCN(c2cccc(NCc3cnc4ccccn34)c2)CC1,1,-0.2
Cc1cc(Nc2nc(C(=O)NCC[C@H](C)N3CCCCCC3)cc3occc23)ccc1Br,-3,0.57
